Test results reported in the supplement of paper PMC12217912.
The list shows a part of the results. The full chains were built here from the parent and the listed change. Inactive controls read about 0.05.

B1: TEV protease; numbered along this chain (parent)
chain: MGESLFKGPRDYNPISSSICHLTNESDGHTTSLYGIGFGPFIITNKHLFRRNNGTLVVQSLHGVFKVKDTTTLQQHLVDGRDMIIIRMPKDFPPFPQKLKFREPQREERICLVTTNFQTKSMSSMVSDTSCTFPSGDGIFWKHWIQTKDGQCGSPLVSTRDGFIVGIHSASNFTNTNNYFTSVPKNFMELLTNQEAQQWVSGWRLNADSVLWGGHKVFMVKPEEPFQPVKEATQL

Variants of: B1
Assay: raw area under fraction-flipped curve 0-4 h after induction (AUC4h, not background-subtracted), DNA-recorder readout of cleavage of the substrate (dimensionless); higher = more cleavage of the substrate by the protease variant
Conditions: temperature: 34 °C; time window: 0-4 h after rhamnose induction
Description: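 In vivo DNA recorder in E. coli TOP10(DE3) ΔrhaA at 34 °C. Each TEVp single-site mutant (parent TEVp 0) is paired with a single-site variant of the 7-mer TEVs (canonical ENLYFQ|S). The substrate sits between flexible linkers in a Bxb1-sfGFP-TEVs-SsrA fusion, so cleavage stabilises Bxb1 and speeds flipping of a recombination array, read by NGS. The value is the raw area under the fraction-flipped curve over 0-4 h after rhamnose induction (AUC4h), with ≥20 reads per time point. It is not background-subtracted; inactive controls average about 0.047.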
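Further: Bxb1 expression induced with 0.2% (w/v) L-rhamnose at OD600 near 0.5, cultures sampled hourly, flipped fraction per protease–substrate barcode pair counted by paired-end Illumina sequencing.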

Row | Variant | area with substrate ENLYCQS | area with substrate ENLYDQS | area with substrate ENLYEQS | area with substrate ENLYGQS | area with substrate ENLYHQS | area with substrate ENLYIQS | area with substrate ENLYKQS | area with substrate ENLYMQS | area with substrate ENLYPQS | area with substrate ENLYRQS | area with substrate ENLYVQS | area with substrate ENLYLQS | area with substrate ENLYNQS | area with substrate ENLYQQS | area with substrate ENLYSQS | area with substrate ENLYTQS | area with substrate ENLYWQS | area with substrate ENLYYQS
1 | M219C | 0.0832 | 0.0525 | 0.0739 | 0.0469 | 0.0682 | 0.117 | 0.063 | 0.0991 | 0.0635 | 0.058 | 0.0927 | – | – | – | – | – | – | –
2 | S4G | – | 0.0558 | 0.0597 | 0.0621 | 0.0727 | 0.127 | 0.0445 | 0.0581 | 0.0804 | 0.0634 | 0.11 | 0.102 | 0.06 | 0.0692 | 0.0805 | 0.0803 | 0.0978 | 0.0616
3 | S4M | – | 0.0624 | 0.0617 | 0.0698 | – | 0.106 | 0.0549 | 0.0913 | 0.0718 | 0.0686 | 0.127 | 0.0857 | 0.0702 | – | 0.0477 | 0.0591 | 0.0637 | –
4 | Q74V | – | 0.0759 | 0.0645 | 0.0847 | – | 0.0832 | 0.055 | 0.0528 | 0.0645 | – | 0.0879 | – | 0.061 | 0.0667 | 0.0515 | 0.0866 | – | 0.059
5 | T44K | – | 0.0403 | 0.0431 | 0.0372 | 0.0304 | 0.0475 | 0.0247 | 0.0379 | 0.0549 | 0.0595 | 0.057 | 0.0471 | 0.0565 | 0.0287 | – | – | 0.0401 | 0.0483
6 | F6H | – | 0.0465 | – | 0.0682 | 0.0827 | 0.0843 | 0.0599 | 0.0494 | – | – | 0.128 | – | 0.0872 | – | – | 0.0929 | 0.0759 | 0.069
7 | R10P | – | 0.062 | – | 0.0637 | 0.0652 | 0.0962 | 0.0698 | 0.0873 | 0.0803 | 0.0726 | 0.106 | 0.0613 | 0.0697 | 0.0645 | 0.0739 | 0.0708 | 0.0764 | 0.0489
8 | R10C | – | 0.0535 | 0.0765 | 0.0651 | 0.0812 | – | 0.0523 | 0.105 | 0.0753 | 0.0473 | 0.0929 | 0.0833 | 0.0705 | 0.0885 | 0.0755 | – | – | –
9 | I85P | – | 0.0471 | 0.0352 | 0.0393 | 0.0447 | 0.0485 | – | – | 0.0322 | – | 0.0389 | – | 0.0446 | 0.0702 | 0.0489 | – | 0.0367 | –
10 | F49K | – | 0.0591 | 0.0543 | – | 0.0559 | 0.0561 | 0.0183 | 0.0543 | 0.0576 | – | – | 0.0677 | 0.0519 | 0.0592 | 0.0488 | 0.0498 | 0.0571 | 0.0733
11 | F49V | – | 0.0746 | 0.0652 | 0.0597 | 0.0597 | 0.0631 | 0.0593 | – | 0.0592 | 0.0578 | – | 0.0534 | 0.0724 | – | 0.0631 | 0.0672 | 0.0567 | 0.069
12 | T147E | 0.0597 | 0.0513 | 0.0602 | 0.0502 | 0.0634 | 0.0544 | 0.0598 | 0.0658 | 0.0755 | 0.0534 | 0.0561 | 0.0643 | 0.0647 | 0.0659 | 0.0596 | 0.0586 | 0.0525 | –
13 | Q105C | – | 0.0625 | 0.0594 | 0.074 | 0.0717 | – | 0.0612 | 0.089 | 0.0704 | 0.0703 | 0.116 | – | 0.067 | – | – | – | – | –
14 | N206G | 0.0567 | 0.0622 | 0.0675 | 0.0734 | 0.0653 | 0.102 | 0.0937 | 0.0751 | 0.0688 | – | 0.121 | 0.0965 | 0.0719 | 0.0792 | – | – | 0.0629 | 0.0633
15 | T31P | – | 0.0598 | 0.0586 | 0.0591 | 0.0582 | 0.0618 | – | 0.0556 | 0.0531 | 0.0551 | – | 0.0425 | 0.0506 | 0.0549 | 0.0333 | – | 0.0632 | –
16 | V78F | – | 0.0622 | 0.0585 | 0.0721 | 0.0635 | 0.109 | 0.0645 | – | – | – | – | 0.086 | 0.0549 | 0.0506 | 0.0683 | – | – | –
17 | T233H | 0.101 | 0.0608 | 0.0528 | 0.108 | 0.0521 | 0.0701 | 0.0789 | – | 0.0718 | 0.0577 | 0.0893 | – | 0.0761 | – | 0.0738 | 0.0937 | 0.066 | –
18 | E223T | 0.0768 | 0.0573 | 0.0761 | 0.049 | 0.0651 | 0.102 | 0.0565 | 0.0731 | 0.0674 | – | 0.113 | – | 0.0718 | 0.0635 | 0.0756 | 0.0646 | – | 0.107
19 | H29R | – | 0.0562 | 0.0758 | – | – | 0.107 | 0.0777 | 0.0843 | 0.0746 | 0.0607 | – | – | 0.0664 | – | – | 0.0831 | – | 0.051
20 | P155L | 0.0316 | 0.0539 | 0.0428 | 0.0468 | 0.0562 | 0.0941 | 0.0494 | – | 0.0268 | 0.0561 | – | – | 0.056 | 0.0758 | 0.0583 | – | 0.0302 | 0.0428
21 | D11A | – | 0.058 | 0.0668 | 0.0609 | 0.0665 | – | 0.052 | 0.0809 | 0.0693 | 0.0739 | 0.1 | – | 0.056 | 0.0564 | – | 0.0751 | 0.0822 | 0.0616
22 | D11Q | – | 0.0587 | 0.0761 | 0.0599 | 0.064 | 0.1 | 0.0618 | 0.0721 | 0.0746 | 0.0666 | 0.0944 | 0.071 | 0.0745 | 0.0631 | 0.0695 | – | 0.0679 | 0.059
23 | L22K | – | 0.0478 | 0.0464 | – | 0.0344 | 0.0478 | 0.052 | 0.0312 | 0.052 | – | 0.0418 | 0.0521 | 0.0324 | 0.0601 | – | – | 0.0458 | 0.0507
24 | L22V | – | 0.0442 | 0.0527 | 0.0587 | 0.0732 | 0.127 | 0.0462 | 0.0823 | 0.0681 | 0.0729 | 0.0984 | 0.0283 | 0.0674 | 0.0728 | 0.0824 | 0.0638 | 0.0722 | 0.0725
25 | Q234I | 0.091 | – | 0.0647 | 0.0596 | 0.0664 | 0.136 | 0.0812 | 0.0947 | – | 0.0626 | 0.0893 | – | 0.0691 | 0.0577 | – | 0.0793 | 0.082 | –
